Laboratory results reported in PubChem BioAssay AID624417 (National Center for Advancing Translational Sciences (NCATS), 2012).
In all, about 410,000 compounds went through this assay and about 6,400 (1.6%) were called active. The inconclusive results got no clear call from the source; some entries with a clear call stand among them for comparison. The call rests on the fitted dose curve; in most records, active means well fitted inhibition curve with a large enough effect; inconclusive means small, poorly fitted or top-dose-only effect; inactive means no such curve, though single readings can be large or run the other way. No potency is given beside an inconclusive call; the fits are too rough.

The molecules below were run against Glucagon-like peptide 1 receptor (Homo sapiens) (UniProt P43220) (assay: qHTS of GLP-1 Receptor Inverse Agonists (Inhibition Mode)). Details: HEK293 GLP-1R CRE-luciferase, luminescence, 24 h, GLP-1R form is constitutively active; activity change, negative = inhibition: at 38.3 µM (top of the series) unless noted.
UniProt P43220, sequence (P43220 whole entry, looked up): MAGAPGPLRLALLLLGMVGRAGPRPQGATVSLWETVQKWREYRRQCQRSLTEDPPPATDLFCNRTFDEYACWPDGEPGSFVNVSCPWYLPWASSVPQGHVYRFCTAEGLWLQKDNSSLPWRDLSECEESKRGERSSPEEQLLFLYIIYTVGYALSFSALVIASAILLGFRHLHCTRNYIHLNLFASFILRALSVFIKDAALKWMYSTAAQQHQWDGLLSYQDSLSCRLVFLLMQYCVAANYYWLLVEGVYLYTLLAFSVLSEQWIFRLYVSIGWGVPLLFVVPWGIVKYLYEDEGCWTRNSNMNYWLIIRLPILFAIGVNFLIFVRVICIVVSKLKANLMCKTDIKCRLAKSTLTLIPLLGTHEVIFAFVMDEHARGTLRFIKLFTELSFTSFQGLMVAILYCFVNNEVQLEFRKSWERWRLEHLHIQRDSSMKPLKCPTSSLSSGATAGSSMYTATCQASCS
Method in brief: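 Constitutively active GLP-1R drives a cAMP-responsive luciferase in stably transfected HEK293 cells; test compounds are added after overnight (12 h) attachment and left 24 hr, and signal loss in luminescence marks inhibition.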
Further: nearly all actives have a fitted effect of over 55% in size.
On the % scale 0 is the no-effect control and ±100 the full control effect; potency means the concentration at half of the fitted maximal effect; tags describe the fitted curve by direction and shape.

| Compound | activity change, negative = inhibition | Potency |
| --- | --- | --- |
| COc1ccc(CNC(=O)Cn2cnc3c(SC)nc(N)nc32)cc1 | inactive: 4.95% | – |
| CCC(C)c1ccc(NC(=O)Nc2cnccn2)cc1 (stereo not drawn) | – | inconclusive [inhibitor, full curve, poor fit] |
| O=C1/C(=C/c2cccc(F)c2)SC(=S)N1NS(=O)(=O)c1ccccc1 | – | inconclusive [inhibitor, partial curve] |
| COCCCNc1oc(-c2ccc(COc3ccccc3C)o2)nc1C#N | – | inconclusive [inhibitor, single point] |
| CC12CCC(C(=O)Nc3ccccc3Cl)(C(Br)C1=O)C2(C)C (stereo not drawn) | – | inconclusive [inhibitor, partial curve, poor fit] |
| CC1=C(C(=O)Nc2cccc(F)c2)C2(CCCCCC2)OC1=O | – | inconclusive [inhibitor, partial curve, poor fit] |
| COc1cc(C(=O)N/N=C/c2cc([N+](=O)[O-])cs2)cc(OC)c1OC | – | inconclusive [inhibitor, full curve, poor fit] |
| COC(=O)C1=C(C)N=C2SC(C#N)=C(N)N2C1c1cc(OC)c(OC)c(OC)c1 (stereo not drawn) | inactive: -13% | – |
| Cc1cccc(Nc2n[nH]c(=S)s2)c1C | inactive: 2.99% | – |
| O=C(CCSCc1cccc(F)c1)NCCc1ccccc1 | – | inconclusive [inhibitor, single point] |
| CCOC(=O)C(C)Oc1cccc2c(=O)n(CC(=O)NCc3ccco3)ccc12 (stereo not drawn) | – | inconclusive [inhibitor, full curve] |
| CC(C)(C)CC(=O)Nc1ccccc1N1CCN(c2ccccc2)CC1 | – | inconclusive [inhibitor, partial curve, poor fit] |
| CC1CCN(S(=O)(=O)c2ccc(C(=O)NCc3cccnc3)cc2)CC1 | inactive: -9.96% [at 0.307 µM] | – |
| C=C1CC(Cn2cc(Br)c(=O)[nH]c2=O)(c2ccc(-c3ccccc3)cc2)OC1=O (stereo not drawn) | inactive: -66.8% | – |
| O=C(COCc1cc(-c2ccc(F)cc2)on1)Nc1cc(Cl)cc(Cl)c1 | inactive: 18.7% | – |
| O=C(CSc1nnc(CNC(=O)c2cccc(C(F)(F)F)c2)o1)NC1CCCCC1 | – | inconclusive [inhibitor, partial curve, poor fit] |
| O=C(NNC(=O)c1cc(-c2ccccc2)n(-c2ccccc2)n1)c1cccc([N+](=O)[O-])c1 | – | inconclusive [inhibitor, single point] |
| COc1ccc(C)c2sc(N(CCCN(C)C)C(=O)CS(=O)(=O)c3ccc(F)cc3)nc12 | – | inconclusive [inhibitor, single point] |
| COc1cc(NC(=O)c2cc(-c3ccccc3Cl)on2)cc(OC)c1OC | – | inconclusive [inhibitor, full curve, poor fit] |
| COc1ccc(OC)c(Nc2nc(-c3sc(NC(=O)C(C)(C)C)nc3C)cs2)c1 | – | inconclusive [inhibitor, full curve, poor fit] |
| Cc1ccccc1C(=O)Nc1ccnn1C1CCN(Cc2c(C)n(C)c3ccccc23)CC1 | – | active: 11.2 µM |
| CCOC(=O)Nc1nc(-c2ccc(F)cc2F)cs1 | – | inconclusive [inhibitor, single point] |

| Compound | activity change, negative = inhibition | Potency |
| --- | --- | --- |
| CCOC(=O)C1(C)CCCN(C(=O)c2ccc(C)c(F)c2)C1 (stereo not drawn) | inactive: 10.7% | – |
| Cc1cc(C)n(C(=O)CCNC(=O)c2ccccc2Br)n1 | – | inconclusive [inhibitor, full curve, poor fit] |
| COc1cc(CNCCCSc2nnnn2C)cc(Br)c1OC | inactive: -5.72% | – |
| CC(C)(C)c1ccc(Cn2nnc3c(=O)[nH]c(C4CCN(C(=O)c5ccco5)CC4)nc32)cc1 | – | inconclusive [inhibitor, single point] |
| CCC(c1nnc(SCc2nc3ccccc3s2)n1Cc1ccccc1)N(C)C (stereo not drawn) | – | inconclusive [inhibitor, partial curve, poor fit] |
| Nc1ccc(Oc2ccc(N)c([N+](=O)[O-])c2)cc1[N+](=O)[O-] | – | inconclusive [inhibitor, single point] |
| Nc1scc2c(C(=O)N/N=C/c3ccc(Cl)cc3)nn(-c3ccccc3)c(=O)c12 | inactive: 3.19% | – |
| CCc1ccccc1-n1nnc(-c2nc(-c3ccccc3F)no2)c1C | – | inconclusive [inhibitor, full curve] |
| O=C(O)CN1C(=O)/C(=C\c2ccccc2OCc2ccc(Cl)cc2Cl)SC1=S | – | inconclusive [inhibitor, partial curve, poor fit] |
| O=C(Nc1cccc(F)c1)C1CCN(c2nc3ccccc3nc2C(F)(F)F)CC1 | inactive: -20.4% | – |
| NS(=O)(=O)c1ccc(CCNC(=O)Cn2c(=O)c3cccn3c3ccc(F)cc32)cc1 | inactive: 9.1% | – |
| CN1C(=O)C(c2nnc(Nc3cccc4ccccc34)s2)C2CC1(C)Oc1ccccc12 (stereo not drawn) | – | inconclusive [inhibitor, partial curve, poor fit] |
| COC(=O)C1(CC2CC(c3ccc(Cl)cc3)=NO2)CCN(C(=O)OC(C)(C)C)CC1 (stereo not drawn) | – | inconclusive [inhibitor, single point] |
| Cc1cc2ccccn2c1C(=O)c1ccccc1F | – | inconclusive [inhibitor, single point] |
| CCn1c(CC(=O)Nc2ccc(F)cc2)nnc1SCC(=O)Nc1nncs1 | inactive: 1.3% | – |
| CC(C)(C)c1ccc(S(=O)(=O)NCC(=O)Nc2ccc(-c3nc4ccccc4s3)cc2)cc1 | – | inconclusive [inhibitor, single point] |
| Cc1ccc(C(=O)NC(=S)NCc2ccccc2)cc1 | inactive: -27% | – |
| CCc1ccc(NC(=O)Nc2ccsc2C(=O)OC)cc1 | – | inconclusive [inhibitor, single point] |
| Cc1cc(OC(=O)N2CCOCC2)cc(C)c1Cl | – | inconclusive [inhibitor, partial curve, poor fit] |
| COc1ccc(NC(=O)c2sc(=O)n(Cc3ccc(F)c(Cl)c3)c2C)cc1OC | – | inconclusive [inhibitor, full curve, poor fit] |
| O=C(N/N=C/c1cc([N+](=O)[O-])ccc1O)c1cccc(N2CCCC2=O)c1 | – | inconclusive [inhibitor, single point] |
